# According to the supplement of paper PMC12217912:
# The list shows a part of the results. Sequences were assembled here from the parent chain. Inactive controls read about 0.05.
# B1: TEV protease; numbered along this chain (parent)
# chain: MGESLFKGPRDYNPISSSICHLTNESDGHTTSLYGIGFGPFIITNKHLFRRNNGTLVVQSLHGVFKVKDTTTLQQHLVDGRDMIIIRMPKDFPPFPQKLKFREPQREERICLVTTNFQTKSMSSMVSDTSCTFPSGDGIFWKHWIQTKDGQCGSPLVSTRDGFIVGIHSASNFTNTNNYFTSVPKNFMELLTNQEAQQWVSGWRLNADSVLWGGHKVFMVKPEEPFQPVKEATQL
# Variants of: B1
# Experiment: raw area under fraction-flipped curve 0-4 h after induction (AUC4h, not background-subtracted), DNA-recorder readout of cleavage of the substrate (dimensionless); higher = more cleavage of the substrate by the protease variant
# Conditions: temperature: 34 °C; time window: 0-4 h after rhamnose induction
# Experimental: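 In vivo DNA recorder in E. coli TOP10(DE3) ΔrhaA at 34 °C. Each TEVp single-site mutant (parent TEVp 0) is paired with a single-site variant of the 7-mer TEVs (canonical ENLYFQ|S). The substrate sits between flexible linkers in a Bxb1-sfGFP-TEVs-SsrA fusion, so cleavage stabilises Bxb1 and speeds flipping of a recombination array, read by NGS. The value is the raw area under the fraction-flipped curve over 0-4 h after rhamnose induction (AUC4h), with ≥20 reads per time point. It is not background-subtracted; inactive controls average about 0.047.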
# 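Note: Bxb1 expression induced with 0.2% (w/v) L-rhamnose at OD600 near 0.5, cultures sampled hourly, flipped fraction per protease–substrate barcode pair counted by paired-end Illumina sequencing.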
Variant,area with substrate ENAYFQS,area with substrate ENDYFQS,area with substrate ENEYFQS,area with substrate ENFYFQS,area with substrate ENGYFQS,area with substrate ENIYFQS,area with substrate ENMYFQS,area with substrate ENNYFQS,area with substrate ENQYFQS,area with substrate ENRYFQS,area with substrate ENTYFQS,area with substrate ENVYFQS,area with substrate ENWYFQS,area with substrate ENHYFQS,area with substrate ENPYFQS,area with substrate ENSYFQS,area with substrate ENYYFQS,area with substrate ENKYFQS,area with substrate ENCYFQS
T71L,0.0652,0.0701,0.0544,0.0491,0.0697,0.071,0.0683,0.0457,0.0502,0.0667,0.0448,0.073,0.0553,–,–,–,–,–,–
T71W,0.0914,–,0.0547,0.0546,–,0.0968,–,0.0682,0.0636,–,–,0.064,0.0545,0.0611,0.105,0.0473,0.0547,–,–
T71C,0.052,0.0666,0.0605,–,–,0.0948,0.0846,–,0.0534,0.047,0.0576,0.0652,0.004,0.0654,0.0614,0.0454,–,–,–
L73P,0.0572,0.0638,0.0668,–,0.0554,–,–,0.0429,0.0638,0.0248,0.0615,0.0423,0.0328,0.0561,–,–,–,0.0514,–
L73Y,0.0627,0.0561,0.055,0.0507,0.0507,0.0678,0.0558,0.0588,0.0568,–,0.0509,0.0526,–,0.0539,–,0.0464,0.0466,0.0657,0.0519
K68T,0.0649,0.0623,0.0441,–,0.0627,–,0.0735,–,0.0568,–,0.0675,–,–,–,0.0431,0.067,0.0727,–,–
D91H,0.0611,0.0604,0.05,0.0588,0.0628,0.157,0.0861,0.0677,0.0588,0.0501,0.0598,–,0.039,0.0762,0.0624,0.0638,–,–,0.0704
D91A,0.0623,0.0619,0.0367,–,0.0489,–,–,–,0.0687,–,0.0577,–,–,–,0.0655,0.0121,0.0394,0.0746,0.074
D91P,0.0507,–,0.0491,0.0633,–,–,–,–,0.0437,0.0508,0.0641,–,–,0.048,–,0.0857,–,0.0641,0.0596
F65W,0.076,0.0629,0.0509,0.0784,0.0787,–,–,0.0607,0.0583,0.06,–,0.0815,0.0723,0.0566,0.0622,0.0581,–,0.066,0.0776
P94G,0.0808,0.0556,0.0606,0.0633,0.0587,0.171,0.119,0.0633,0.0684,0.0637,0.0626,0.0829,–,0.0556,0.0564,0.0608,–,0.0544,0.0644
P94I,0.0333,–,0.0368,0.0778,0.0969,–,–,0.0491,0.0616,0.0706,–,–,0.0497,–,0.0462,0.0695,–,0.0594,0.0527
K98I,0.0737,0.0643,0.0548,0.0601,0.057,0.0906,0.0634,0.062,0.0582,–,0.07,0.0743,0.013,–,0.0446,0.0613,0.0556,0.0612,0.0809
H62V,0.0639,0.0401,0.0669,0.0538,–,–,0.0803,–,0.0693,–,–,0.0656,–,–,0.054,0.052,–,0.0525,0.0632
H62F,0.0632,0.0539,0.0627,0.0662,0.0595,–,0.0795,0.0429,0.0472,0.0628,0.0749,0.0591,0.0547,0.057,–,0.0601,0.0642,–,0.0584
H62D,0.0651,0.0576,0.0547,0.0644,0.0604,–,0.064,0.0485,0.0621,0.07,0.0651,0.0749,–,0.0625,–,–,–,0.0623,0.06
L56V,0.0554,0.0608,0.0627,–,0.0586,–,0.061,–,0.0543,0.0594,–,0.0574,–,0.0584,0.0499,0.0615,0.0545,–,–
L56D,0.0508,0.0506,0.0409,0.0322,–,–,0.0581,0.0449,0.0431,0.0398,0.0408,0.0524,0.0481,0.0486,0.0335,0.0443,0.0261,0.0745,0.0411
Q74V,0.047,0.0691,0.0592,0.0587,–,–,–,0.0586,0.0694,0.0561,0.0586,0.0542,–,0.0512,0.0657,0.0691,0.0553,–,0.0979
V78S,0.0515,0.0595,0.0593,0.0544,–,0.077,–,–,0.0538,0.0437,0.0563,0.0677,0.0542,0.0596,0.043,0.0611,0.0583,–,–
V78C,0.0574,0.0571,0.0602,0.0649,–,0.11,–,0.0803,0.0549,0.0556,0.0636,0.0608,0.06,0.0609,0.0662,0.063,–,–,0.0622
T70S,0.0461,0.0638,–,0.0574,0.0533,0.105,0.082,0.0672,0.0879,0.0514,0.067,0.0758,0.0371,0.0637,0.0529,0.0652,–,0.0663,0.0692
G54R,0.0672,0.0623,0.0592,0.0491,0.0586,0.0621,0.0455,0.049,0.0646,0.0587,0.0528,0.0677,0.0407,0.0478,0.0645,0.0583,0.0361,0.0626,0.065
G54L,0.0365,0.0452,0.0558,–,0.0554,0.0698,–,0.0451,0.0544,0.0548,0.0489,0.0526,–,0.058,0.0572,–,–,0.0481,0.0592
G54H,0.0612,0.0623,0.0547,0.0665,0.0573,0.0888,0.0567,0.0628,0.0553,0.0522,0.0558,0.0568,–,0.0639,–,0.0592,0.063,–,–
